Each block holds one binder with its values, some of them ahead of it.
Key:
Test in all cases: cell-based or functional assay
human Tie2 [1] = molecular target: T1, human Tie2 (human, UniProt Q02763 23-1124)
human Tie2 [2] = molecular target: T1, human Tie2; remark: listed apart in the source
VEGF = molecular target: T2, VEGF (human, UniProt P15692-4)
T2 sequence (VEGF-165 chain, looked up): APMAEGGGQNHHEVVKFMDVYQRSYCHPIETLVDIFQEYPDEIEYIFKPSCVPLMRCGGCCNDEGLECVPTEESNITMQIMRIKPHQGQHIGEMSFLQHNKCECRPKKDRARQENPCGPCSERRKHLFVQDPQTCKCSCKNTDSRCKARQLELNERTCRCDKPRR

human Tie2 [3] = molecular target: T1, human Tie2; remark: listed apart in the source

T1 sequence (Q02763 23-1124): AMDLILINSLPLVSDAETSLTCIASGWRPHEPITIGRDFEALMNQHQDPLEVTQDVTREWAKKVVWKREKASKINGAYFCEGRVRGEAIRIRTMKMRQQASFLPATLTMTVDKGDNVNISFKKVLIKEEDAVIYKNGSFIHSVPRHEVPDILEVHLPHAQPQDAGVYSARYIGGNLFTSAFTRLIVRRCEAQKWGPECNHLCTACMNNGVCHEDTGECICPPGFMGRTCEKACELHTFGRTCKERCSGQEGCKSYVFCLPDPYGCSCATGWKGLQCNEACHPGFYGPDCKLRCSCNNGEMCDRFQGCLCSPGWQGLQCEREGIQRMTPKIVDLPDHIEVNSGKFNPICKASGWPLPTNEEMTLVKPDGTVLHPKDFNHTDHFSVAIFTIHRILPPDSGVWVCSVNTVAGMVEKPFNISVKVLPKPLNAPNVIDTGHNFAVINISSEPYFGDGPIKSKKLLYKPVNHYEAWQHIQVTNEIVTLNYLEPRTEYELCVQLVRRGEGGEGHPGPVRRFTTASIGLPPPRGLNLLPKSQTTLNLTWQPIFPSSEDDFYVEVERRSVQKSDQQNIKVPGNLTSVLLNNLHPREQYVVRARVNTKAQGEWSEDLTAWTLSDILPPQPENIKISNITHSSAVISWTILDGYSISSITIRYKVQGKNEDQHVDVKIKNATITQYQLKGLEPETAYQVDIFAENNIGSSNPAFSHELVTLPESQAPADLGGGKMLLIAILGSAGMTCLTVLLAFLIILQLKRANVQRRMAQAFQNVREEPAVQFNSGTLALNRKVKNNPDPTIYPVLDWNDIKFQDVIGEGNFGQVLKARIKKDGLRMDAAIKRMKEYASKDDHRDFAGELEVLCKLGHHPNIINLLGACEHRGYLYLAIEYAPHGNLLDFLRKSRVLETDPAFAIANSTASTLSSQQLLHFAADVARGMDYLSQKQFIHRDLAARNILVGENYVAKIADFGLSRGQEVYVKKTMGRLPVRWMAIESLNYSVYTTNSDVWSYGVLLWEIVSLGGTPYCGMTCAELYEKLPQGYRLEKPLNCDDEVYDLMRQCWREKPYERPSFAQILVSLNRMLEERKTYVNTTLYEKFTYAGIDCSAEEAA

B1: Construct #5 (bispecific antibody, human IgG1, kappa, L234A L235A)
heavy: DVQLVESGGGVVRPGESLRLSCTASGFTFDSYGMSWVRQAPGKGLEWVSSINVGDNTYYADSVRGRFIISRDSSRNTLYLQMNSLTAEDTAVYYCANWNSFFDYWGLGTLVTVSSASTKGPSVFPLAPSSKSTSGGTAALGCLVKDYFPEPVTVSWNSGALTSGVHTFPAVLQSSGLYSLSSVVTVPSSSLGTQTYICNVNHKPSNTKVDKKVEPKSCDKTHTCPPCPAPEAAGGPSVFLFPPKPKDTLMISRTPEVTCVVVDVSHEDPEVKFNWYVDGVEVHNAKTKPREEQYNSTYRVVSVLTVLHQDWLNGKEYKCKVSNKALGAPIEKTISKAKGQPREPQVYTLPPSREEMTKNQVSLTCLVKGFYPSDIAVEWESNGQPENNYKTTPPVLDSDGSFFLYSKLTVDKSRWQQGNVFSCSVMHEALHNHYTQKSLSLSPGKGGGGSGGGGSGGGGSGGGGSEVQLVESGGGLVQPGGSLRLSCAASGYDFTHYGMNWVRQAPGKGLEWVGWINTYTGEPTYAADFKRRFTFSLDTSKSTAYLQMNSLRAEDTAVYYCAKYPYYYGTSHWYFDVWGQGTLVTVSSASTKGPSVFPLAPSSKSTSGGTAALGCLVKDYFPEPVTVSWNSGALTSGVHTFPAVLQSSGLYSLSSVVTVPSSSLGTQTYICNVNHKPSNTKVDKKVEPKSCDKTHGGGGSGGGGSGGGGSGGGGSDIQLTQSPSSLSASVGDRVTITCSASQDISNYLNWYQQKPGKAPKVLIYFTSSLHSGVPSRFSGSGSGTDFTLTISSLQPEDFATYYCQQYSTVPWTFGQGTKVEIKRTVAAPSVFIFPPSDEQLKSGTASVVCLLNNFYPREAKVQWKVDNALQSGNSQESVTEQDSKDSTYSLSSTLTLSKADYEKHKVYACEVTHQGLSSPVTKSFNRGEC
light: EIVLTQSPGTLSLSPGEIATLSCRASQNVRSDLAWYQQKPGQAPRLLIYDASNRATGIPDRFSGSGSGTDFTLTISSLQSEDFAVYYCQQYSNWPPLTFGGGTKVEIKRTVAAPSVFIFPPSDEQLKSGTASVVCLLNNFYPREAKVQWKVDNALQSGNSQESVTEQDSKDSTYSLSSTLTLSKADYEKHKVYACEVTHQGLSSPVTKSFNRGEC
EC50, pAkt in HUVEC (MSD ELISA) [Panel B] (human Tie2 [1]): 5.39 nM | EC50, pTie2 in HUVEC, W/ VEGF (20 nM VEGF-165 per paragraph 153) [Panel E] (human Tie2 [2]): 2.24 nM | EC50, pTie2 in HUVEC, W/O VEGF [Panel E] (human Tie2 [2]): 11 nM | EC50, VEGF neutralisation, KDR/NFAT-RE HEK293 luciferase reporter (VEGF): 0.107 nM

B2: #23 (bispecific antibody, human IgG1, kappa, L234A L235A)
heavy chain: DVQLVESGGGVVRPGESLRLSCTASGFTFDSYGMSWVRQAPGKGLEWVSSINVGDNTYYADSVRGRFIISRDSSRNTLYLQMNSLTAEDTAVYYCANWNSFFDYWGLGTLVTVSSASTKGPSVFPLAPSSKSTSGGTAALGCLVKDYFPEPVTVSWNSGALTSGVHTFPAVLQSSGLYSLSSVVTVPSSSLGTQTYICNVNHKPSNTKVDKKVEPKSCDKTHTCPPCPAPEAAGGPSVFLFPPKPKDTLMISRTPEVTCVVVDVSHEDPEVKFNWYVDGVEVHNAKTKPREEQYNSTYRVVSVLTVLHQDWLNGKEYKCKVSNKALGAPIEKTISKAKGQPREPQVYTLPPSREEMTKNQVSLTCLVKGFYPSDIAVEWESNGQPENNYKTTPPVLDSDGSFFLYSKLTVDKSRWQQGNVFSCSVMHEALHNHYTQKSLSLSPGKGGGGSGGGGSGGGGSGGGGSEVQLVESGGGLVQPGGSLRLSCAASGYDFTHYGMNWVRQAPGKGLEWVGWINTYTGEPTYAADFKRRFTFSLDTSKSTAYLQMNSLRAEDTAVYYCAKYPYYYGTSHWYFDVWGQGTLVTVSSASTKGPSVFPLAPSSKSTSGGTAALGCLVKDYFPEPVTVSWNSGALTSGVHTFPAVLQSSGLYSLSSVVTVPSSSLGTQTYICNVNHKPSNTKVDKKVEPKSCDKTHGGGGSGGGGSGGGGSGGGGSGGGGSGGGGSGGGGSDIQLTQSPSSLSASVGDRVTITCSASQDISNYLNWYQQKPGKAPKVLIYFTSSLHSGVPSRFSGSGSGTDFTLTISSLQPEDFATYYCQQYSTVPWTFGQGTKVEIKRTVAAPSVFIFPPSDEQLKSGTASVVCLLNNFYPREAKVQWKVDNALQSGNSQESVTEQDSKDSTYSLSSTLTLSKADYEKHKVYACEVTHQGLSSPVTKSFNRGEC
light chain (kappa): B1 light
EC50, pTie2 in HUVEC (in vitro potency; the sheet's head prints no unit, EC50 in nM per legend paragraph 17) (human Tie2 [3]): 5.9 nM

B4: #24 (bispecific antibody, human IgG1, kappa, L234A L235A)
heavy chain: DVQLVESGGGVVRPGESLRLSCTASGFTFDSYGMSWVRQAPGKGLEWVSSINVGDNTYYADSVRGRFIISRDSSRNTLYLQMNSLTAEDTAVYYCANWNSFFDYWGLGTLVTVSSASTKGPSVFPLAPSSKSTSGGTAALGCLVKDYFPEPVTVSWNSGALTSGVHTFPAVLQSSGLYSLSSVVTVPSSSLGTQTYICNVNHKPSNTKVDKKVEPKSCDKTHTCPPCPAPEAAGGPSVFLFPPKPKDTLMISRTPEVTCVVVDVSHEDPEVKFNWYVDGVEVHNAKTKPREEQYNSTYRVVSVLTVLHQDWLNGKEYKCKVSNKALGAPIEKTISKAKGQPREPQVYTLPPSREEMTKNQVSLTCLVKGFYPSDIAVEWESNGQPENNYKTTPPVLDSDGSFFLYSKLTVDKSRWQQGNVFSCSVMHEALHNHYTQKSLSLSPGKGGGGSGGGGSGGGGSGGGGSEVQLVESGGGLVQPGGSLRLSCAASGYDFTHYGMNWVRQAPGKGLEWVGWINTYTGEPTYAADFKRRFTFSLDTSKSTAYLQMNSLRAEDTAVYYCAKYPYYYGTSHWYFDVWGQGTLVTVSSASTKGPSVFPLAPSSKSTSGGTAALGCLVKDYFPEPVTVSWNSGALTSGVHTFPAVLQSSGLYSLSSVVTVPSSSLGTQTYICNVNHKPSNTKVDKKVEPKSCDKTHGGGGSGGGGSGGGGSGGGGSGGGGSGGGGSGGGGSGGGGSGGGGSGGGGSDIQLTQSPSSLSASVGDRVTITCSASQDISNYLNWYQQKPGKAPKVLIYFTSSLHSGVPSRFSGSGSGTDFTLTISSLQPEDFATYYCQQYSTVPWTFGQGTKVEIKRTVAAPSVFIFPPSDEQLKSGTASVVCLLNNFYPREAKVQWKVDNALQSGNSQESVTEQDSKDSTYSLSSTLTLSKADYEKHKVYACEVTHQGLSSPVTKSFNRGEC
light chain (kappa): B1 light
EC50, pTie2 in HUVEC (in vitro potency; the sheet's head prints no unit, EC50 in nM per legend paragraph 17) (human Tie2 [3]): 5.59 nM

Other lines, results leading:

EC50, pTie2 in HUVEC (in vitro potency; the sheet's head prints no unit, EC50 in nM per legend paragraph 17) (human Tie2 [3]): 6.04 nM
B3: #22 (bispecific antibody, human IgG1, kappa, L234A L235A)
heavy chain: DVQLVESGGGVVRPGESLRLSCTASGFTFDSYGMSWVRQAPGKGLEWVSSINVGDNTYYADSVRGRFIISRDSSRNTLYLQMNSLTAEDTAVYYCANWNSFFDYWGLGTLVTVSSASTKGPSVFPLAPSSKSTSGGTAALGCLVKDYFPEPVTVSWNSGALTSGVHTFPAVLQSSGLYSLSSVVTVPSSSLGTQTYICNVNHKPSNTKVDKKVEPKSCDKTHTCPPCPAPEAAGGPSVFLFPPKPKDTLMISRTPEVTCVVVDVSHEDPEVKFNWYVDGVEVHNAKTKPREEQYNSTYRVVSVLTVLHQDWLNGKEYKCKVSNKALGAPIEKTISKAKGQPREPQVYTLPPSREEMTKNQVSLTCLVKGFYPSDIAVEWESNGQPENNYKTTPPVLDSDGSFFLYSKLTVDKSRWQQGNVFSCSVMHEALHNHYTQKSLSLSPGKGGGGSGGGGSGGGGSGGGGSEVQLVESGGGLVQPGGSLRLSCAASGYDFTHYGMNWVRQAPGKGLEWVGWINTYTGEPTYAADFKRRFTFSLDTSKSTAYLQMNSLRAEDTAVYYCAKYPYYYGTSHWYFDVWGQGTLVTVSSASTKGPSVFPLAPSSKSTSGGTAALGCLVKDYFPEPVTVSWNSGALTSGVHTFPAVLQSSGLYSLSSVVTVPSSSLGTQTYICNVNHKPSNTKVDKKVEPKSCDKTHGGGGSGGGGSGGGGSGGGGSGGGGSGGGGSDIQLTQSPSSLSASVGDRVTITCSASQDISNYLNWYQQKPGKAPKVLIYFTSSLHSGVPSRFSGSGSGTDFTLTISSLQPEDFATYYCQQYSTVPWTFGQGTKVEIKRTVAAPSVFIFPPSDEQLKSGTASVVCLLNNFYPREAKVQWKVDNALQSGNSQESVTEQDSKDSTYSLSSTLTLSKADYEKHKVYACEVTHQGLSSPVTKSFNRGEC
light chain (kappa): B1 light

EC50, pTie2 in HUVEC (in vitro potency; the sheet's head prints no unit, EC50 in nM per legend paragraph 17) (human Tie2 [3]): 4.57 nM
B5: #21 (bispecific antibody, human IgG1, kappa, L234A L235A)
heavy chain: DVQLVESGGGVVRPGESLRLSCTASGFTFDSYGMSWVRQAPGKGLEWVSSINVGDNTYYADSVRGRFIISRDSSRNTLYLQMNSLTAEDTAVYYCANWNSFFDYWGLGTLVTVSSASTKGPSVFPLAPSSKSTSGGTAALGCLVKDYFPEPVTVSWNSGALTSGVHTFPAVLQSSGLYSLSSVVTVPSSSLGTQTYICNVNHKPSNTKVDKKVEPKSCDKTHTCPPCPAPEAAGGPSVFLFPPKPKDTLMISRTPEVTCVVVDVSHEDPEVKFNWYVDGVEVHNAKTKPREEQYNSTYRVVSVLTVLHQDWLNGKEYKCKVSNKALGAPIEKTISKAKGQPREPQVYTLPPSREEMTKNQVSLTCLVKGFYPSDIAVEWESNGQPENNYKTTPPVLDSDGSFFLYSKLTVDKSRWQQGNVFSCSVMHEALHNHYTQKSLSLSPGKGGGGSGGGGSGGGGSGGGGSEVQLVESGGGLVQPGGSLRLSCAASGYDFTHYGMNWVRQAPGKGLEWVGWINTYTGEPTYAADFKRRFTFSLDTSKSTAYLQMNSLRAEDTAVYYCAKYPYYYGTSHWYFDVWGQGTLVTVSSASTKGPSVFPLAPSSKSTSGGTAALGCLVKDYFPEPVTVSWNSGALTSGVHTFPAVLQSSGLYSLSSVVTVPSSSLGTQTYICNVNHKPSNTKVDKKVEPKSCDKTHGGGGSGGGGSGGGGSGGGGSGGGGSDIQLTQSPSSLSASVGDRVTITCSASQDISNYLNWYQQKPGKAPKVLIYFTSSLHSGVPSRFSGSGSGTDFTLTISSLQPEDFATYYCQQYSTVPWTFGQGTKVEIKRTVAAPSVFIFPPSDEQLKSGTASVVCLLNNFYPREAKVQWKVDNALQSGNSQESVTEQDSKDSTYSLSSTLTLSKADYEKHKVYACEVTHQGLSSPVTKSFNRGEC
light chain (kappa): B1 light
